Among all 150,000 compounds or so, about 540 (0.36%) showed an effect of 50% or more. The list shows a part of the results.
Tested on: Plasmodium falciparum
Test: Primary screen in NF54 nanoGlo assay, in single point, at 2uM, 72h; a lower Z score goes with more inhibition
Format: functional, Erythrocyte
Conditions: timepoint 72 hour

Row | SMILES | % Inhibition | Z score | % Inhibition (2 µM) | Z score (2 µM)
1 | Cc1cc(F)ccc1C(=O)NC[C@H]1CCN(c2cnn(C)c(=O)c2)C1 | 2% | -0.22 |  | 
2 | COc1ccc(CCNC(=O)c2cc3n(n2)CCN(Cc2cccc(F)c2)C3=O)cc1OC | 31% | -1.58 |  | 
3 | C[C@]1(O)C[C@@H](NC(=O)c2cc(Br)ccc2O)C1 | -13% | 2.22 |  | 
4 | c1ccc(-c2cc3c(n2C2CCCCC2)[C@@H](c2ccccc2)Oc2ccccc2-3)cc1 | -3% | 0.38 |  | 
5 | COc1ccc(F)c(CN2CC[C@]3(C2)CN(C)C(=O)CO3)c1 | -10% | 1.37 |  | 
6 | COc1ccc(C(=N)NOC(=O)Oc2ccccc2)cc1OC | 1% | -0.11 |  | 
7 | COC(=O)c1cn(NC(=O)[C@H](C)O)cc2c(O)nnc1-2 | -1% | 0.11 |  | 
8 | CCC(CC)C(=O)N(Cc1ccc(-c2ccc(Cl)cc2)o1)[C@H]1CCS(=O)(=O)C1 | -7% | 0.86 |  | 
9 | O=C1OCc2cc(NC(=O)N3CCC4(CC3)c3ccccc3C[C@@H]4O)ccc21 | 5% | -0.85 |  | 
10 | c1ncn(-c2ccc(N3CCC(N4CC(N5CCOCC5)C4)CC3)cc2)n1 | -3% | 0.39 |  | 
11 | Cc1nn(C)c(C)c1[C@@H](NCc1nc(C2CC2)nn1C)C(F)(F)F | 7% | -1.32 |  | 
12 | O=C(NCc1ccc(F)c(Cl)c1)N1CCOC2(CNC2)C1 | 0% | 0.02 |  | 
13 | Cc1[nH]nc(-c2cccc(F)c2)c1NC(=O)c1ccc2c(c1)OCO2 | 1% | -0.1 |  | 
14 | Cc1cc(NS(=O)(=O)c2c(C)n[nH]c2C)ccc1N1CCCC1=O | -2% | 0.25 |  | 
15 | COc1ccc(NC(=O)Cn2cc(-c3ccccc3)c(N(C)C)n2)cc1 | -5% | 0.68 |  | 
16 | CCCCc1noc(Cn2cnc3c2c(=O)n(C)c(=O)n3C)n1 | -8% | 1.07 |  | 
17 | OCc1ccccc1-c1cccc2cccnc12 | -8% | 1.44 |  | 
18 | CN(CCc1ccccn1)C(=O)c1cc(COc2ccc3c(c2)OCO3)[nH]n1 | -1% | 0.1 |  | 
19 | CN(C)S(=O)(=O)N1CCC(c2cc(C(=O)NCC(F)(F)F)[nH]n2)CC1 | 12% | -1.54 |  | 
20 | CC[C@@]1(O)COC2(CN(C(=O)CCc3conc3-c3ccccc3F)C2)C1 | -5% | 0.73 |  | 
21 | C#CCOc1ccc2ccccc2c1[C@@H]1NC(=O)c2cccnc2N1 | 38% | -4.85 |  | 
22 | CCc1c(C(=O)N(CC)CC)c(=O)cc(C)n1Cc1cccs1 | -9% | 1.16 |  | 

Row | SMILES | % Inhibition | Z score | % Inhibition (2 µM) | Z score (2 µM)
23 | CCCc1cc(CCC)n2cc(Cc3cn4c(CCC)cc(CCC)nc4n3)nc2n1 | 1% | -0.15 |  | 
24 | CCOC(=O)CN(c1cc(F)cc(F)c1)S(=O)(=O)c1cccn2cnnc12 | 4% | -0.52 |  | 
25 | COc1cc2c(cc1CNC(=O)N1CCN3C(=O)OC[C@H]3C1)OCCO2 | -9% | 1.61 |  | 
26 | COc1ccc2c(c1)C(N1CCCN(C(=O)CC3CCCC3)CC1)=Nc1cc(C(F)(F)F)ccc1O2 | -3% | 0.4 |  | 
27 | CCC(C)(C)COC(=O)c1csc(COC)n1 | -1% | 0.09 |  | 
28 | COc1ccc(NC(=O)Cn2ccc3ccn(Cc4ccccc4)c3c2=O)cc1 | 10% | -1.17 |  | 
29 | O=C(NCCn1ccccc1=O)c1cnn2c1OCCC2 | -11% | 1.43 |  | 
30 | CC(C)CC[C@@]1(C2CCNCC2)NC(=O)N(CC2CC2)C1=O | -17% | 1.65 |  | 
31 | O=C1CCN(C(=O)c2ccc(-c3ccc4c5c(cccc35)CC4)cc2)CCN1 | 0% | 0.03 |  | 
32 | CCC(C)NC(=O)C(C)NC(=O)CCc1ccccn1 (stereo not given) | -8% | 1.41 |  | 
33 | Cc1nc(-c2cc(C)sc2NC(=O)C(C)(C)C)n(-c2ccccn2)n1 | 1% | -0.09 |  | 
34 | CN(Cc1ncc(C2CC2)o1)C(=O)C1CC1c1ccc(Br)cc1 (stereo not given) | -3% | 0.35 |  | 
35 | O=C(CCc1ccsc1)Nc1nc(C2CC2)no1 | -2% | 0.23 |  | 
36 | CC1CN(C(=O)COCC(F)(F)F)C(C)CO1 (stereo not given) | -4% | 0.69 |  | 
37 | Cn1c(=O)c2cn(S(=O)(=O)c3ccc(Cl)cc3)nc2n(C)c1=O | -4% | 0.48 |  | 
38 | CN(C(=O)[C@H]1CCCN(C2CCN(Cc3ccncc3)CC2)C1)C1CCCCCC1 | -4% | 0.61 |  | 
39 | Cc1cc(-c2nnc(N)o2)nn1C(C)C | 7% | -0.9 |  | 
40 | O=C(CN1CCc2nc(NC(=O)c3cnccn3)sc2C1)NCc1ccco1 | -5% | 0.86 |  | 
41 | O=C(CN1C(=O)CN(c2ccccc2)C1=O)N1CCc2sccc2C1 | -11% | 1.92 |  | 
42 | CC(C)C1CC(NS(=O)(=O)c2c(Cl)cnn2C)CCO1 (stereo not given) | -1% | 0.18 |  | 
43 | Cc1csc(C(C)(C)NCC(=O)N[C@@H](C)c2cccs2)n1 | -3% | 0.6 |  | 
44 | CCc1nc2cc(C(=O)N(C)CC3CCN(C)CC3)cc(NC(=O)c3ccccc3OC)c2n1C | -20% | 2.21 |  | 

Row | SMILES | % Inhibition | Z score | % Inhibition (2 µM) | Z score (2 µM)
45 | C[C@@]1(C(=O)N2CCn3nc(C#N)cc3C2)CCCO1 | -5% | 0.57 |  | 
46 | CC(C)c1c(C(=O)NC[C@H]2CCCO2)cnn1-c1ccccc1 | -7% | 0.67 |  | 
47 | O=C1CCOCCN1Cc1c(F)cccc1Cl | -22% | 2.1 |  | 
48 | CC(=O)N[C@H](C(=O)Nc1ccc(C)cc1Cl)C(C)C | -12% | 1.95 |  | 
49 | CCc1nnc(COc2ccc3c(c2)CCNC3=O)o1 | -2% | 0.47 |  | 
50 | Cn1nc(C(=O)N2CCCCCO2)ccc1=O | -10% | 2.06 |  | 
51 | NC(=O)Cn1nc(-c2ccccc2)n(CCc2ccccc2)c1=O | -11% | 0.99 |  | 
52 | COCCn1ccnc1CN(C)Cc1cnccn1 | -7% | 1.32 |  | 
53 | O=C(NCc1ccco1)N[C@H]1CCOC[C@@H]1OCc1ccccn1 | -2% | 0.47 |  | 
54 | CCOc1ccc(C(=O)NCC(=O)Nc2cc(C)n[nH]2)cc1 | -18% | 1.84 |  | 
55 | Cc1ccc(Oc2ncnc3scc(-c4ccccc4)c23)cn1 | -1% | 0.11 |  | 
56 | CC[C@H]1C(=O)NCCN1CCC1CN(C(=O)OC(C)(C)C)C1 | -8% | 1.37 |  | 
57 | COc1ccc([C@H]2CC(=O)NCc3nc4ccc(C)cn4c32)cc1C | -13% | 1.38 |  | 
58 | CCc1ccnc(C(=O)N[C@H]2CCn3nccc3C2)c1 | 7% | -0.87 |  | 
59 | COc1cccc(Cn2ncn(C)c2=O)c1Cl | -4% | 0.63 |  | 
60 | COCc1nc([C@@H]2CCCCCN2C(=O)c2cccnc2OC)no1 | -2% | 0.29 |  | 
61 | Cc1cc(C(=O)NCCc2cccs2)no1 | -3% | 0.46 |  | 
62 | CN(C)/C=C/c1c(C#N)c(=O)ncn1Cc1ccccc1 |  |  | -5% | -0.35
63 | Cc1ccc(NC(=O)[C@@H]2COC3(CCN(C(=O)c4ccco4)CC3)N2C(=O)c2ccccc2)cc1 | -7% | 1.18 |  | 
64 | Cc1c(Cl)c(C(=O)N2CCC3(CC2)[C@H](O)C[C@@H]3O)nn1C | -5% | 0.78 |  | 
65 | O=c1[nH]ccc2ccc(-c3cc(OC(F)(F)F)ccc3O)cc12 | -15% | 1.65 |  | 
66 | CC(=O)N1CCN(c2nc3c(c(=O)[nH]c(=O)n3C)n2Cc2c(F)cccc2Cl)CC1 | 32% | -3.5 |  | 

Row | SMILES | % Inhibition | Z score | % Inhibition (2 µM) | Z score (2 µM)
67 | COCCNc1ccccc1CNC(=O)c1cncc(C)c1O | -12% | 1.21 |  | 
68 | CN(C/C=C/c1ccccc1)C(=O)NC[C@H]1CCCN(Cc2ccco2)C1 | -9% | 1.79 |  | 
69 | CC[C@@H](Cc1ccccc1)N(CC)C(=O)Nc1ccc(NC(=O)c2ccco2)c(Cl)c1 | -8% | 1.6 |  | 
70 | CC(C)[C@H](NC(=O)CCCNC(=O)c1cnccn1)c1nc2ccccc2n1C | -14% | 1.8 |  | 
71 | CN1C(=O)CC[C@]2(CNC(=O)c3ccc4ccccc4n3)CCCC=C12 | -3% | 0.47 |  | 
72 | O=C(COC[C@H]1CCCCO1)N1CCC2(CCCC2)C1 | -11% | 1.29 |  | 
73 | COc1ccccc1CCCNc1cc([C@H]2C[C@@H](NC(C)=O)C2)ncn1 | -13% | 2.47 |  | 
74 | CN(C)c1nccnc1O[C@H]1CCCN(C(=O)Cc2cccs2)C1 | -5% | 0.78 |  | 
75 | CC[C@H](NC(=O)N(C)Cc1ccoc1)c1nc(C)no1 | 5% | -0.7 |  | 
76 | Cc1ccc2c(c1)NC(=O)c1cc(S(=O)(=O)N3CCCC3)c(N3CCCC3)cc1O2 | -14% | 1.94 |  | 
77 | COc1cccc([C@@H]2Cn3nnc(-c4nc(-c5cccc(C)c5)no4)c3CO2)c1 | -12% | 2.16 |  | 
78 | CN(Cc1nnc2n1CCOCC2)C(=O)c1ccc(-c2ccncc2)o1 | -2% | 0.25 |  | 
79 | O=C(NCc1ccncc1)c1coc(COc2cccc3cccnc23)n1 | 1% | -0.26 |  | 
80 | N#Cc1ccc(-n2nnc3ccccc32)cc1 | -7% | 0.88 |  | 
81 | CC(O)CC1COCCN1Cc1sccc1Cl (stereo not given) | -2% | 0.17 |  | 
82 | CCCc1ccc(CN(C)Cc2cnn(C)c2)o1 | -2% | 0.41 |  | 
83 | CC1=NN(C)C(=O)[C@H]1C(=O)NCc1ccco1 | -5% | 0.97 |  | 
84 | CCc1ccc(C(=O)N2CCC3(CCN(Cc4ncc[nH]4)CC3)[C@@H](CO)C2)[nH]1 | -16% | 2.01 |  | 
85 | Cc1nc(-c2sc(C(C)C)nc2C)n(C2CCN(C)CC2)n1 | 2% | -0.42 |  | 

— ChEMBL document CHEMBL4888484, “Replenishing the malaria drug discovery pipeline: Screening and hit evaluation of the MMV Hit Generation Library 1 (HGL1) against asexual blood stage Plasmodium falciparum ,using a nano luciferase reporter read-out” (2022)
